Reference: publication PMC4336329 (PLoS ONE, 2015)
About 2,200 (0.71%) of roughly 310,000 compounds showed an effect of 50% or more. The effect is printed as a negative number. Some of the results follow.

molecular target: human ether-à-go-go-related gene (hERG) potassium channel (human, UniProt Q12809); test: primary screen, population patch clamp on CHO cells stably expressing hERG
Sequence (Q12809 whole entry, looked up): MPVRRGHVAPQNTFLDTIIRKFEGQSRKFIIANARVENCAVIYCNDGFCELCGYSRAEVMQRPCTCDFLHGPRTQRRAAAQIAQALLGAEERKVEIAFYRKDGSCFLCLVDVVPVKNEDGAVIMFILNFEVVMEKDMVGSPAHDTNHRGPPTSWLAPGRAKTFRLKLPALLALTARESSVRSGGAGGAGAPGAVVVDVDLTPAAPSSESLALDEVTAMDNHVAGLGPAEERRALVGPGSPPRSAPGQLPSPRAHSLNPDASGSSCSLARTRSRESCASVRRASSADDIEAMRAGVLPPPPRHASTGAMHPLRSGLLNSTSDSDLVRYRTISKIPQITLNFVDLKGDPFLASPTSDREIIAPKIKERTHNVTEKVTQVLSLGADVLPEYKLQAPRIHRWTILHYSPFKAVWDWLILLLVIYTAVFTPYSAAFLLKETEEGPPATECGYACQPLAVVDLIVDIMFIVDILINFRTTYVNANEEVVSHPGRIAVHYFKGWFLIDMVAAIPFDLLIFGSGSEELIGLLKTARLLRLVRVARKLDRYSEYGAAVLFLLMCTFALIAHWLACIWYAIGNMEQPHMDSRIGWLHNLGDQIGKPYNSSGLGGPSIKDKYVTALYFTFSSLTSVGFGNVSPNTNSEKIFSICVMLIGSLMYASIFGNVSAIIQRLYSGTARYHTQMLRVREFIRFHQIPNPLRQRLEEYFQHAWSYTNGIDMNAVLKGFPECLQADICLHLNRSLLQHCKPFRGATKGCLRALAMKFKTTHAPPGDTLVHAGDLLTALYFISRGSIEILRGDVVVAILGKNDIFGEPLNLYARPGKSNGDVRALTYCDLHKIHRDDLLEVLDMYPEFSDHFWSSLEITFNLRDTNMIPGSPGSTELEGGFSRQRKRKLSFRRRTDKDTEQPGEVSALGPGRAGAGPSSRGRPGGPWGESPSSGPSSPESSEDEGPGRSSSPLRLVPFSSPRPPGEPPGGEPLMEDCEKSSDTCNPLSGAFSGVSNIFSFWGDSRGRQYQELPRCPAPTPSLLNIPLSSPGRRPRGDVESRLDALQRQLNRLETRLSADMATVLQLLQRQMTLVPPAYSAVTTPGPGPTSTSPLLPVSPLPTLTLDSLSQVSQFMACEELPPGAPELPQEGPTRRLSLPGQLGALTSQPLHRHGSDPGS

SMILES | hERG current change (%, negative = inhibition) at 1uM [%]
Cc1ccc2nc(NC(=O)c3ccccn3)sc2c1 | 3.26
CC(C)CNC(=O)NC(=O)COC(=O)c1cccc(NS(=O)(=O)c2ccc(F)c(F)c2)c1 | -5.6
O=C(c1ccc(Cl)cc1)c1c[nH]c(C(=O)C(Cl)(Cl)Cl)c1 | 21.7
COc1ccc(CNC(=O)Cn2ccc(NC(=O)OCc3ccccc3)nc2=O)cc1 | 21.5
CC(C)(C)c1cnnn1-c1ccc([N+](=O)[O-])cc1 | 8.67
CC(C)NC(=O)C(=O)NNC(=O)CCc1ccccc1 | 6.98
CC(NC(=O)c1ccc(OC2CCN(Cc3ccccn3)CC2)cc1)c1nccs1 (centres unmarked) | 8.82
O=C(CN(C(=O)CCC(=O)Nc1nccs1)c1ccccc1F)NCc1ccc2c(c1)OCO2 | 11.6
COc1cc(/C=C/C(=O)O)cc(S(=O)(=O)NC2CC2)c1OC | 6.48
COC(=O)CCCC(=O)NC1CCCc2c1cnn2-c1ccc(F)cc1F (centres unmarked) | 15
O=C(CSc1nncn1-c1ccccc1)N1CCCC1 | 10.5
Cc1ccccc1OCC(O)CN1C(=O)c2ccccc2C1=O (centres unmarked) | 13.3
O=C1CCC(C(=O)Nc2cccc3ccccc23)N1 (centres unmarked) | 11.1
Cc1nc(-c2ccc(F)cc2)c(CC(=O)Nc2ccc(C)c(S(=O)(=O)N3CCOCC3)c2)s1 | 5.55
COc1ccc(C(=O)NCC2(c3ccc(OC)c(OC)c3)CCCC2)c(OC)c1 | 10
CC(=O)N(c1ccc(Cl)cc1)c1cn(C(C)=O)c2ccccc12 | -1.35
O=C(c1ccc(CS(=O)(=O)c2ccc(Br)cc2)o1)N1CCN(c2ncccn2)CC1 | -2.14
N#CC1=C(N)Oc2n[nH]c(-c3ccc(F)cc3)c2C1c1ccncc1 (centres unmarked) | 8.91
COc1ccc(N2CCN(C(=O)c3cc(C)on3)CC2)cc1 | 11.2

SMILES | hERG current change (%, negative = inhibition) at 1uM [%]
O=C1CCN(S(=O)(=O)c2ccccc2)CCN1CCOCc1cccc(F)c1 | 9.28
CCOC(=O)CC(=O)CSc1nnc2sc3ccccc3n12 | 13.8
N#C/C(=C(/O)COC(=O)COc1cccc(Br)c1)c1nc2ccccc2[nH]1 | 9.85
CCOC(=O)c1c(CCl)nc2ccccc2c1-c1ccccc1 | 18.5
Cc1cc(C)n(-c2cccc(C(=O)O)c2)n1 | 12.5
O=C(O)COc1ccccc1/C=N/NC(=O)CN1CCN(Cc2ccccc2Cl)CC1 | 10.4
O=C1C(c2cc(=O)c3ccccc3[nH]2)=C(O)c2ccccc21 | 9.75
COc1cc(C(=O)NCc2nc(C)cs2)ccc1OC1CCN(C(C)=O)CC1 | 9.19
CCN1CCN(C(=O)CS(=O)Cc2nc(-c3cccc(C)c3)oc2C)CC1 (centres unmarked) | 7.3
CC1CCC(NC(=O)C(C)N2C(=O)C3CCCCC3C2=O)CC1 (centres unmarked) | 15.2
Cc1cccc(Cn2cnc3c(nnn3Cc3ccccc3F)c2=O)c1 | -25.4
O=C(CN1CCN(Cc2ccccc2F)C1=O)NCCc1ccc(Cl)cc1 | -31.4
CC(C)N(Cc1ccccc1)C(=O)CN1C(=O)c2ccccc2C1=O | 12
CC(Sc1nnc(COc2ccc([N+](=O)[O-])cc2)n1C)C(=O)O (centres unmarked) | 5.88
O=C(CSc1nc2ccccc2o1)Nc1ccc(N2CCOCC2)cc1 | -6.03
Cc1cc(S(=O)(=O)N2CCN(CC(=O)NCCc3cccs3)CC2)ccc1Br | 6.46
Cc1cccc(-c2nc(Nc3ccc(O)cc3)c3ccccc3n2)c1 | 7.61
NC(=S)N/N=C/c1cccc(Br)c1 | 8.52
CCc1cc2c(-c3ccccc3)cc(=O)oc2cc1OC(C)C(=O)NCC1CCC(C(=O)O)CC1 (centres unmarked) | 17.8

SMILES | hERG current change (%, negative = inhibition) at 1uM [%]
CCOC(=O)c1ccc2ncc(C(=O)OCC)c(NCc3ccco3)c2c1 | 1.82
Cc1cc(C(=O)NCCN2CCOCC2)ccc1[N+](=O)[O-] | 12.3
C=CCn1c(O)c(/C(C)=N/NC(=S)Nc2ccccc2)c(=O)[nH]c1=O | 13.9
Cc1ccc(S(=O)(=O)N(C)c2ccc(C(=O)O)cc2)cc1 | 6.35
O=C(CSc1ccc(-c2ccco2)nn1)NCc1ccccc1Cl | -8.19
CCOC(=O)CNc1c(N2CCN(c3ccccn3)CC2)c(=O)c1=O | 14.6
O=C1CC(N2CCN(c3ccccn3)CC2)C(=O)N1c1ccc(F)cc1 (centres unmarked) | 11.9
O=C(Cn1cccc1)N1CCN(C(c2ccccc2)c2ccccc2)CC1 | -2.27
O=C1N=C(N2CCN(Cc3ccccc3)CC2)S/C1=C/c1cccs1 | 7.28
CCc1ccc(CNCCc2c[nH]c3ccccc23)cc1.O=C(O)C(=O)O | -9.05
O=C(O)CSc1nnc(CNc2ccccc2Cl)n1-c1ccccc1 | -17.9
CC(C)[C@H](NC(=O)c1ccccc1Cl)C(=O)Nc1nc(-c2ccccn2)cs1 | 5.38
COc1ccc(CCNC(=O)C2CC(=O)N(c3ccccc3)C2)cc1OC (centres unmarked) | -0.694
O=C(N/C(=C\c1cccc([N+](=O)[O-])c1)C(=O)N1CCOCC1)c1ccc([N+](=O)[O-])cc1 | -2.31
CCn1c(C)c(C(C)=O)c(N2CCN(c3ccccc3)CC2)nc1=S | -2.66
Cc1ccc(S(=O)(=O)Cc2ccc(C(=O)N3CCN(Cc4ccccc4)CC3)o2)cc1 | 2.95
COc1ccc(Cl)cc1NC(=O)C1CC(=O)N(C2CCCCC2)C1 (centres unmarked) | 3.63
COc1ccc2c(c1)c(C(=O)N/N=C/c1ccc(Br)cc1)c(C)n2C | 5.63
